By IC50 is meant the dose at which the fit gives 50% viability; a fit beyond the top or the lowest dose is shown as a bound at that dose. AUC is the area under the same curve over the 256-fold range up to the top dose, as a fraction; it is 1 without any effect and falls as sensitivity rises.

Compound in the assay: COc1ccc(C2=N[C@@H](c3ccc(Cl)cc3)[C@@H](c3ccc(Cl)cc3)N2C(=O)N2CCNC(=O)C2)c(OC(C)C)c1 [Nutlin-3a]
Nature of the assay: Viability of human cancer cell lines after 72 h of drug (GDSC screen). On the procedure: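 Human cancer cell lines in 384-well plates, medium with 10% serum, drug for 72 h over a 256-fold dose range (nine 2-fold or five 4-fold steps up to the top dose). Adherent lines were fixed and stained with the nucleic acid dye Syto60, suspension lines read with resazurin; signal relative to control wells, capped at 0 and 100%. One two-parameter sigmoid per drug and line, fitted in a mixed model over all curves with the slope shared within a line.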

“NCI-H1648 (lung adenocarcinoma, adherent, top dose 4 µM)”: the AUC came to 0.957 and the concentration for half-maximal inhibition (IC50) (commonly the concentration that gives 50% inhibition) was over 4 µM.
As to “NCI-H1651 (lung adenocarcinoma, adherent, top dose 8 µM)”, the AUC came out at 0.982 and the half-maximal inhibitory concentration (IC50) is over 8 µM.
Taken in the same sequence, the figures for “NCI-H1688 (small cell lung carcinoma, adherent, top dose 8 µM)” were 0.981 and over 8 µM.
Taken in the same sequence, the figures for “NCI-H1693 (lung adenocarcinoma, adherent, top dose 4 µM)” were 0.958 and over 4 µM.
Taken in the same sequence, the figures for “NCI-H1694 (small cell lung carcinoma, suspension, top dose 8 µM)” were 0.985 and over 8 µM.
As to “NCI-H1703 (lung adenocarcinoma, adherent, top dose 8 µM)”, the AUC was 0.898 and the IC50 is over 8 µM.
Taken in the same sequence, the figures for “NCI-H1755 (lung adenocarcinoma, adherent, top dose 8 µM)” were 0.973 and over 8 µM.
The like results for “NCI-H1770 (non-small cell lung carcinoma, suspension, top dose 8 µM)” were, in that order, 0.991 and over 8 µM.
The like results for “NCI-H1781 (lung adenocarcinoma, adherent, top dose 8 µM)” were, in that order, 0.989 and over 8 µM.
As to “NCI-H1792 (lung adenocarcinoma, adherent, top dose 8 µM)”, the AUC is 0.987 and the IC50 is over 8 µM.
The like results for “NCI-H1836 (small cell lung carcinoma, suspension, top dose 8 µM)” were, in that order, 0.988 and over 8 µM.
Taken in the same sequence, the figures for “NCI-H1838 (lung adenocarcinoma, adherent, top dose 4 µM)” were 0.984 and over 4 µM.
The like results for “NCI-H1869 (lung squamous cell carcinoma, adherent, top dose 8 µM)” were, in that order, 0.963 and over 8 µM.
Turning to “NCI-H1876 (small cell lung carcinoma, adherent, top dose 8 µM)”, the AUC amounted to 0.987 and the IC50 is over 8 µM.
The like results for “NCI-H1944 (lung adenocarcinoma, adherent, top dose 8 µM)” were, in that order, 0.907 and over 8 µM.
The like results for “NCI-H1975 (lung adenocarcinoma, adherent, top dose 8 µM)” were, in that order, 0.982 and over 8 µM.
Taken in the same sequence, the figures for “NCI-H1993 (lung adenocarcinoma, adherent, top dose 8 µM)” were 0.981 and over 8 µM.
On to “NCI-H2009 (lung adenocarcinoma, adherent, top dose 8 µM)”, for which the AUC came out at 0.974 and the half-inhibitory concentration (IC50) is over 8 µM.
The like results for “NCI-H2023 (lung adenocarcinoma, adherent, top dose 4 µM)” were, in that order, 0.952 and over 4 µM.
The like results for “NCI-H2030 (lung adenocarcinoma, adherent, top dose 4 µM)” were, in that order, 0.965 and over 4 µM.
The like results for “NCI-H2052 (mesothelioma, adherent, top dose 8 µM)” were, in that order, 0.92 and over 8 µM.
For “NCI-H2066 (small cell lung carcinoma, adherent, top dose 8 µM)”, the AUC came out at 0.98 and the half-maximal inhibitory concentration (IC50) was over 8 µM.
For “NCI-H2081 (small cell lung carcinoma, suspension, top dose 8 µM)”, the AUC is 0.986 and the half-inhibitory concentration (IC50) was over 8 µM.
The like results for “NCI-H2085 (lung adenocarcinoma, adherent, top dose 4 µM)” were, in that order, 0.947 and over 4 µM.
The like results for “NCI-H2087 (lung adenocarcinoma, semi-adherent, top dose 8 µM)” were, in that order, 0.858 and 7.37 µM.
The like results for “NCI-H2110 (non-small cell lung carcinoma, adherent, top dose 8 µM)” were, in that order, 0.956 and over 8 µM.
Take “NCI-H2135 (non-small cell lung carcinoma, adherent, top dose 8 µM)”: the AUC worked out at 0.974 and the IC50 is over 8 µM.
As for “NCI-H2141 (small cell lung carcinoma, suspension, top dose 8 µM)”, the AUC stood at 0.959 and the concentration for half-maximal inhibition (IC50) was over 8 µM.
Taken in the same sequence, the figures for “NCI-H2172 (non-small cell lung carcinoma, adherent, top dose 8 µM)” were 0.981 and over 8 µM.
Taken in the same sequence, the figures for “NCI-H2227 (small cell lung carcinoma, semi-adherent, top dose 8 µM)” were 0.986 and over 8 µM.
“NCI-H2291 (lung adenocarcinoma, adherent, top dose 8 µM)”: the AUC amounted to 0.982 and the IC50 was over 8 µM.
With “NCI-H2342 (lung adenocarcinoma, adherent, top dose 8 µM)”, the AUC turned out to be 0.977 and the IC50 is over 8 µM.
The like results for “NCI-H2347 (lung adenocarcinoma, adherent, top dose 8 µM)” were, in that order, 0.973 and over 8 µM.
As for “NCI-H2405 (lung adenocarcinoma, adherent, top dose 8 µM)”, the AUC was 0.969 and the half-inhibitory concentration (IC50) is over 8 µM.
Taken in the same sequence, the figures for “NCI-H2444 (non-small cell lung carcinoma, adherent, top dose 8 µM)” were 0.987 and over 8 µM.
Taken in the same sequence, the figures for “NCI-H2452 (mesothelioma, adherent, top dose 8 µM)” were 0.984 and over 8 µM.
The like results for “NCI-H3122 (lung adenocarcinoma, adherent, top dose 8 µM)” were, in that order, 0.985 and over 8 µM.
Regarding “NCI-N87 (stomach, adherent, top dose 8 µM)”, the AUC stood at 0.974 and the IC50 was over 8 µM.
Taken in the same sequence, the figures for “NCI-SNU-1 (stomach, suspension, top dose 8 µM)” were 0.948 and over 8 µM.
The like results for “NCI-SNU-5 (stomach, suspension, top dose 8 µM)” were, in that order, 0.985 and over 8 µM.
The like results for “NCI-SNU-16 (stomach, suspension, top dose 8 µM)” were, in that order, 0.987 and over 8 µM.
Turning to NEC8 (testis, adherent, top dose 8 µM), the AUC amounted to 0.658 and the IC50 worked out at 1.27 µM.
Taken in the same sequence, the figures for “NH-12 (neuroblastoma, adherent, top dose 8 µM)” were 0.812 and 4.94 µM.
Taken in the same sequence, the figures for “NKM-1 (acute myeloid leukaemia, suspension, top dose 8 µM)” were 0.685 and 1.67 µM.
The like results for “NMC-G1 (glioma, adherent, top dose 8 µM)” were, in that order, 0.892 and over 8 µM.
On to “NOMO-1 (acute myeloid leukaemia, suspension, top dose 8 µM)”, for which the AUC was 0.883 and the half-maximal inhibitory concentration (IC50) is over 8 µM.
The like results for “NOS-1 (osteosarcoma, adherent, top dose 8 µM)” were, in that order, 0.931 and over 8 µM.
The like results for “NU-DUL-1 (B-cell lymphoma, suspension, top dose 8 µM)” were, in that order, 0.927 and over 8 µM.
The like results for “NUGC-3 (stomach, adherent, top dose 4 µM)” were, in that order, 0.971 and over 4 µM.
With “NUGC-4 (stomach, adherent, top dose 8 µM)”, the AUC amounted to 0.918 and the IC50 is over 8 µM.
The like results for “NY (osteosarcoma, adherent, top dose 8 µM)” were, in that order, 0.963 and over 8 µM.
Taken in the same sequence, the figures for “OACM5-1 (oesophagus, semi-adherent, top dose 8 µM)” were 0.986 and over 8 µM.
With “OACp4C (oesophagus, adherent, top dose 8 µM)”, the AUC was 0.962 and the IC50 was over 8 µM.
The like results for OAW-28 (ovary, adherent, top dose 4 µM) were, in that order, 0.967 and over 4 µM.
The like results for OAW-42 (ovary, adherent, top dose 8 µM) were, in that order, 0.958 and over 8 µM.
The like results for OC-314 (ovary, adherent, top dose 8 µM) were, in that order, 0.991 and over 8 µM.
Take “OCI-AML2 (acute myeloid leukaemia, suspension, top dose 8 µM)”: the AUC is 0.858 and the IC50 is 4.07 µM.
The like results for “OCI-AML3 (acute myeloid leukaemia, suspension, top dose 8 µM)” were, in that order, 0.884 and 6.55 µM.
The like results for “OCI-AML5 (acute myeloid leukaemia, suspension, top dose 8 µM)” were, in that order, 0.733 and 2.15 µM.
Regarding “OCI-LY7 (B-cell lymphoma, suspension, top dose 8 µM)”, the AUC is 0.963 and the IC50 is over 8 µM.
As to “OCI-LY-19 (B-cell lymphoma, suspension, top dose 8 µM)”, the AUC amounted to 0.698 and the IC50 was found to be 1.71 µM.
In the case of “OCI-M1 (acute myeloid leukaemia, suspension, top dose 8 µM)”, the AUC is 0.993 and the IC50 was over 8 µM.
Taken in the same sequence, the figures for “OCUB-M (breast, adherent, top dose 8 µM)” were 0.973 and over 8 µM.

The record behind these values is the supplement of paper PMC4967469.
